Columns and labels:
[1] = 14C assay with IPTG-induced recombinant E. coli cells: 14CO2 captured from [14C]-carboxyl-labeled dicamba; conditions: for Enzymatic Detection level: dicamba decarboxylation activity of the protein of the given SEQ ID NO, High / Low / No; for Dicamba Decarboxylase Activity: induced recombinant E. coli cells, [14C]-carboxyl-labeled dicamba, 14CO2 capture
[2] = Saturation mutagenesis of SEQ ID NO:109: dicamba decarboxylation activity of point mutants (carbon dioxide released); conditions: decarboxylation activity (carbon dioxide released) of point mutant compared with unmutated backbone protein; backbone SEQ ID NO: 109

Molecule | Enzymatic Detection level [1] | Dicamba Decarboxylase Activity [1] | Fold Activity [2]
65 (protein, listed as Ailuropoda melanoleuca) MAKIDVHSHILPKEWPDLKKRFGYGGWVQLQHHNKGEAKMMKDGKVFRVVQENCWDPEVRIREMDQTGVTVQALSTVPVMFSYWAKPQDTLDLCQLLNNDLAATVANHPRRFVGLGTLPMQAPELAVKEMERCVKELGFPGVQIGSHINEWDLNAKELFPVYAVAEKLNCSLFVHPWDMQMDGRMAKYWLPWLVGMPAETTTAICSMIMGGVFEKFPKLKVCFAHGGGAFPFTVGRISHGFNMRPDLCAQDNPINPKKYLGSFYTDSLVHDPLALKLLTDVIGKDKVILGTDYPFPLGELEPGKLIESMEEFEEETKDKLKAGNALAFLGLERKQFE | Low | Low | 1.7
67 (protein, listed as Amblyomma maculatum) MASSFSAAANLKIDLHAHVTPDRWPNLRERYGYGGWLDIKHESDKTAVMSYDDGRFFRRIESNCWNIDERIADMDRTGVTVQALSTTPVLFSYWAKPEDALDFSRLQNDFVASLVNRRPDRFVGMCTVPMQSPQLAAEELKRCVSQLGFRAVIVGSHINEWTLADRALDPFYRTVKELGVSIFVHPWDMPPSTRYNKYWLQWLVGMPAETTAAICEVIFGGLLERFPRLKLCFAHGAGSFPYTVGRIQHGFDVRPDLCAVDNKIPPKGYLGEIYADSLVHNRGSLRLLLDTLGEDRVMLGSDYPYPLGEIDRPGRLIETSGLQNSVKEKLLWKKCCELPRN | Low | Low | 1.3
66 (protein, listed as Amphimedon queenslandica) MASGIKVDIHNHILPERWPDLKERYGYGGWIQLHHHCQGKARMLKDGQLFRVVDENCWSPEARIKDMDNTGVTVQALSTVPVMFSYWAKPEDTLDLCKILNNDLAQTVAKFPKRFVGLGTLPMQAPELAVQELKRCIKELGFPGVQIGSHVNEWNLDATELQCVFAAAEELNAAVFVHPWDMETGGRMSKYWLPWLVGMPAETATAICSVLFGGVLERHPNLKICFAHGGGSFPYTIGRIEHGFNVRPDLCATENSVNPRSYIGKVYTDSLVHDQKALKFLVDIIGEDRVVLGSDYPFPLGEHFPGKLIESIEEWDTSLKDKLLSKNAFEFLGLDPSQYET | Low | Low | 1.6

Source: patent publication US20160053277A1, “Compositions Having Dicamba Decarboxylase Activity and Methods of Use” (PIONEER HI-BRED INTERNATIONAL, INC., priority 2013, published 2016)
